The campaign covered roughly 50,000 compounds. About 800 (1.6%) showed an effect of 50% or more. The list shows a part of the results.
Each compound was assayed against Bcl-2-like protein 10 (Homo sapiens) (UniProt Q9HD36) (assay: TR3 peptide-Bcl-B binding displacers, biochemical primary FP assay, phenotype converters (AID 1240;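 also: 0% = Bcl-B with tracer peptide and DMSO and 100% = tracer peptide lacking Bcl-B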)). Conditions: GST-Bcl-B / FITC-TR3 peptide fluorescence polarization; stronger effect = higher value; compound at 3.75 mg/L.
Sequence of UniProt Q9HD36 (Q9HD36 whole entry, looked up): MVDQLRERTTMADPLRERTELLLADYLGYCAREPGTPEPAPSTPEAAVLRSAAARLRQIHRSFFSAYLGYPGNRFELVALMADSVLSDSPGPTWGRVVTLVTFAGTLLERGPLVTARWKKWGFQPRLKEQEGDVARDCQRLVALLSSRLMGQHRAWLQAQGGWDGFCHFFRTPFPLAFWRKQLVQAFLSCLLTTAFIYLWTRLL
With `CCn1c(O)c(C=Nc2ccccc2)sc1=S` the displacement was 1.9%. Compound `O=Cc1cn(CCOc2ccccc2)c2ccccc12` has a displacement of 6.8%. `C=CCN1C(=O)/C(=C2\SC(=S)N(Cc3ccco3)C2=O)c2ccccc21` showed a displacement of 10.2%. With `COc1ccc(N2C(=O)CC(NC3CCCCC3)C2=O)cc1` (stereo not given) the displacement was -14.1%. Compound `CC1CCN(S(=O)(=O)c2cc(Cl)ccc2Cl)CC1` has a displacement of 0%. Work on `CCOC(=O)C1=C(c2ccccc2)N=c2s/c(=C\c3ccc(OCC(N)=O)cc3)c(=O)n2C1c1cc(OC)ccc1OC` (stereo not given) yielded a displacement of 0.2%. Work on `c1n[nH]c(SCc2ccc(CSc3ncn[nH]3)cc2)n1` yielded a displacement of 3.4%. Work on `CCC(=O)N(CCc1ccc(OC)cc1)C1CC(=O)N(c2ccc(Br)cc2)C1=O` (stereo not given) yielded a displacement of -2.6%. `O=C(c1ccccc1)N1N=C(C(F)(F)F)CC1(O)c1ccccc1` (stereo not given) was tested, and the displacement was 2.7%. `CCOc1ccccc1N1C(=O)C2C3C=CC(C4CC34)C2C1=O` (stereo not given) was tested, and the displacement was -5%. Work on `Cc1ccc(S(=O)(=O)N/N=C/c2cccc(OS(=O)(=O)c3cccc([N+](=O)[O-])c3)c2)cc1` yielded a displacement of -39.1%. `COC(=O)c1ccc(COc2cc3oc(=O)c4c(c3cc2Cl)CCCC4)cc1` showed a displacement of -7.1%. In the case of `COc1ccccc1NC(=O)C1=C(C)NC2=C(C(=O)CC(C)(C)C2)C1c1ccc2c(c1)OCO2` (stereo not given), the displacement is reported as 10%. `CCOC(=O)Nc1sc2c(c1C(=O)OCC)CCC(CC)C2` (stereo not given) was tested, and the displacement was 15.9%. In the case of `N#CCSc1nc(N)c(C#N)cc1C#N`, the displacement is reported as 1.4%. `O=C(NCc1ccco1)C(=O)Nc1ccc(Cl)c(C(F)(F)F)c1` showed a displacement of -4.6%. `O=C(N/N=C/C1CC=CCC1)c1ccc([N+](=O)[O-])cc1Cl` (stereo not given) gave a displacement of 7.9%. In the case of `CC(C(=O)Nc1ccc(-c2nc3ccccc3s2)c(O)c1)(c1ccccc1)c1ccccc1`, the displacement is reported as 3.9%. In the case of `O=[N+]([O-])c1cc(/C=N/N2CCN(Cc3ccc(Cl)cc3)CC2)ccc1Cl`, the displacement is reported as 9.1%. `c1ccc(CCCN2CCN(Cc3cccnc3)CC2)cc1` was tested, and the displacement was 3%. `CCCC(=O)C1=C(SCC)CC(C)(C)CC1=O` was tested, and the displacement was -3.5%. `COc1cc(C2Nc3ccccc3C(=O)N2Cc2ccco2)cc(OC)c1OC` (stereo not given) was tested, and the displacement was 12.9%. For `O=C(NCCc1ccc(Cl)cc1)C(=O)Nc1ccccc1`, the displacement was 10.5%. With `COc1ccc(C(=O)/C=C(\C)c2ccc(OC)cc2)cc1` the displacement was 0.3%. `NC(=O)NC(c1ccc(Cl)cc1)c1ccc(Cl)cc1` gave a displacement of 2.4%. Work on `CC1=NN(c2ccc(S(N)(=O)=O)cc2)C(=O)/C1=C\c1ccc(C)cc1` yielded a displacement of -2.3%. `Cc1ccc(/C(O)=C2\C(=O)C(=O)N(c3ccc(O)cc3)C2c2cccc(F)c2)cc1` (stereo not given) was tested, and the displacement was -10.2%. `c1ccc2cc(CN3CCN(Cc4c[nH]c5ccccc45)CC3)ccc2c1` gave a displacement of 10%. With `COC(=O)/C(=C\C=C\N(C)c1ccccc1)C(C)=O` the displacement was 1.8%. Work on `COc1ccc(NC(=O)COc2ccc(Cl)cc2C)cc1` yielded a displacement of 1.5%. Work on `CC1=C(C(=O)OCc2ccccc2)C(c2ccc(C(F)(F)F)cc2)CC(=O)N1` (stereo not given) yielded a displacement of -5.8%. Compound `CC1=NNC(=O)C1CC(=O)N/N=C/c1cccc(O)c1` (stereo not given) has a displacement of -3.9%. Work on `Cc1ccc(CC2C(=O)N(c3ccc(Cl)c(Cl)c3)C(=O)C2C)cc1` (stereo not given) yielded a displacement of 0.6%. For `O=C(/C=C/c1ccc2c(c1)OCCO2)c1c(-c2ccccc2)c2cc(Br)ccc2[nH]c1=O`, the displacement was -15.3%. For `CN(c1ccc(C(=O)Nc2cc(Cl)cc(Cl)c2)cc1)S(=O)(=O)c1ccccc1`, the displacement was -14.6%. For `Cc1cc(NC(=O)c2cccc(OC(C)C)c2)no1`, the displacement was 2.1%. For `CCOC(=O)C1=C(C)NC2=C(C(=O)CC(C)(C)C2)C1c1ccc(N2CCOCC2)cc1` (stereo not given), the displacement was 8.7%. With `Cc1ccc(OCC(=O)Nc2ccc3c(c2)OCO3)c(C)c1` the displacement was -2.3%. `CN1CCCc2c1nc1c(c2N)CCCC1` was tested, and the displacement was -16.9%. In the case of `Cc1cccc(OCC(=O)N2CCN(c3ccccn3)CC2)c1`, the displacement is reported as 8.7%. Compound `Cc1ccc(OCC(=O)Nc2ccccc2C#N)c(C)c1` has a displacement of -12.1%. Compound `CCc1nn(-c2ccccc2)c(N)c1-c1ccc(OC)c(OC)c1` has a displacement of -1.4%. Work on `O=C1NC(=O)C(=Cc2cc(Br)ccc2OCc2cccc3ccccc23)C(=O)N1` yielded a displacement of 13.9%. In the case of `O=C(O)/C(=C\c1ccccc1)NC(=O)c1ccccc1`, the displacement is reported as 12.8%. Work on `c1ccc2c(c1)CC1(CCCC1)n1nnnc1-2` yielded a displacement of 3%. Work on `CCN(CC)c1ccc(Nc2cc(C)nc3ncnn23)cc1` yielded a displacement of -8.7%. `C=C(C)COc1cc2oc(=O)cc(C)c2cc1Cl` gave a displacement of 1.2%. For `Cc1ccc(C(C)C)c(OCCNC(=O)Cc2cccc3ccccc23)c1`, the displacement was 9.6%. `O=C(CN1C(=O)CCC1=O)Nc1cccc2ccccc12` was tested, and the displacement was -5.4%. With `O=C(Nc1ccc(F)c(Cl)c1)C1CC2CCC1C2` (stereo not given) the displacement was 16.5%. `O=C(O)C1CCCCN1Cc1ccccc1` (stereo not given) gave a displacement of -3.4%. Compound `Cc1ccccc1C(=O)Nc1sc2c(c1C(N)=O)CCCCC2` has a displacement of 0.6%. `COc1cc(C(N)=O)cc(OC)c1OC` was tested, and the displacement was 18.6%. `CCC1=NN(C(=O)COc2ccccc2)C(O)(c2ccncc2)C1` (stereo not given) was tested, and the displacement was -9%. `CCOc1ccc(NC2(c3ccccc3)C(=O)c3ccccc3C2=O)cc1` was tested, and the displacement was 16.4%. With `O=C(c1ccc(Br)cc1)N1CCN(c2ccc(Cl)cc2[N+](=O)[O-])CC1` the displacement was 10.9%. `COc1cc(/C=N/Nc2nc(N3CCCCC3)nc(N3CCCCC3)n2)cc(Br)c1O` showed a displacement of -7.2%. With `Cc1cccc(NC(=O)/C(=C/c2ccc(C)o2)NC(=O)c2ccccc2)c1` the displacement was 12.5%. `O=C(NCc1ccco1)/C(=C/c1ccc(F)cc1)NC(=O)c1ccccc1Cl` was tested, and the displacement was -15%. With `O=C(COc1ccccc1)Nc1ccccc1CO` the displacement was 10.8%. With `CC(C)C(=O)Nc1ccc2oc(-c3ccc(C(C)(C)C)cc3)nc2c1` the displacement was 4.2%. For `CCc1ccc(NC(=O)C(=O)NCC2CCCO2)cc1` (stereo not given), the displacement was 12.1%. `COc1ccc(OCC(=O)N2CCN(c3ccc([N+](=O)[O-])cc3)CC2)cc1` showed a displacement of 0.3%. `Cc1ccc(NCC(=O)N/N=C\c2cccc(OC(=O)c3ccccc3)c2)cc1` was tested, and the displacement was 3.6%. `COc1ccc(-c2nc3ccccc3nc2N2CCCCC2)cc1` gave a displacement of -4.8%. In the case of `O=C(O)CN1C(=O)/C(=C\c2ccc(OCc3ccccc3)cc2)SC1=S`, the displacement is reported as 9.6%. `CCOC(=O)COc1ccc(/C=C2\C(=O)NC(=O)N(C)C2=O)cc1OC` showed a displacement of 8.5%. `O=C(Nc1ccc2nc(-c3ccc(O)cc3)sc2c1)C1CCCCC1` was tested, and the displacement was 5%. `COC(=O)c1cc(NC(=O)Cc2ccccc2)cc(C(=O)OC)c1` showed a displacement of -4%. In the case of `CCc1ccccc1N(CC(=O)Nc1ccc(Br)cc1)S(C)(=O)=O`, the displacement is reported as 3.9%. Work on `CCOc1cc(/C=C2\SC(=Nc3cccc(Cl)c3C)NC2=O)ccc1O` yielded a displacement of -11.7%. `COc1ccc(C(=O)Nc2nc(-c3ccc(S(=O)(=O)N4CCOCC4)cc3)cs2)cc1` was tested, and the displacement was 4.9%. `O=C1C2C(c3ccccc3)C=CC(c3ccccc3)C2C(=O)N1Cc1ccc(F)cc1` (stereo not given) showed a displacement of -7.7%. Compound `Cc1cccc(NCN2C(=O)S/C(=C/c3ccccc3Cl)C2=O)c1` has a displacement of 9.1%. With `O=C1CC(N2CCC(Cc3ccccc3)CC2)C(=O)N1Cc1ccc(Cl)cc1` (stereo not given) the displacement was -5.8%. `Cc1nnc(N(CCC(N)=O)CCC(N)=O)s1` was tested, and the displacement was 9.6%. For `Cc1c(NC(=O)Cn2cnc3c2c(=O)n(C)c(=O)n3C)cccc1[N+](=O)[O-]`, the displacement was 15.9%. With `COc1cc(C(=O)N2CCN(S(=O)(=O)c3ccccc3)CC2)cc(OC)c1OC` the displacement was -7.7%. With `CCOC(=O)C1=C(O)/C(=C/c2ccc(OC)cc2)SC1=Nc1cccc2ccccc12` the displacement was 9.3%. Compound `CCCN1CCC(=NNC(=O)c2cccc([N+](=O)[O-])c2)CC1` has a displacement of 11.8%. Compound `O=C(Nc1ccc(F)c(Cl)c1)c1cc2n(n1)C(C(F)(F)F)CC(c1cccs1)N2` (stereo not given) has a displacement of -0.7%. For `Cc1nc2cc(-c3ccccc3)sc2c(=O)n1N`, the displacement was -3.5%. In the case of `Cc1ccccc1C(=O)Nc1ccc(Cl)c(C(N)=O)c1`, the displacement is reported as -27.4%. With `COc1cc(CN2CCN(C3CCC(c4ccccc4)CC3)CC2)cc(OC)c1OC` (stereo not given) the displacement was 5.6%. `CCCC(=O)c1c(NCc2ccccc2)cc(C)oc1=O` was tested, and the displacement was -7.3%. Work on `COc1cc(NC(=O)c2ccc(F)cc2)cc(OC)c1` yielded a displacement of -9.2%. `Cc1cccc(C(=O)Nc2cc(Cl)cc(Cl)c2)c1` gave a displacement of 26.9%. Work on `Cc1ccc([N+](=O)[O-])cc1NC(=O)c1cc2ccccc2cc1O` yielded a displacement of -2.9%. `COc1ccccc1OCCCOc1cccc2ccccc12` was tested, and the displacement was 3%. Work on `CCC(NS(=O)(=O)c1ccc2c(c1)Cc1cc(S(=O)(=O)NC(CC)C(=O)O)ccc1-2)C(=O)O` (stereo not given) yielded a displacement of 7.3%. Work on `CC1=C(C(=O)OC(C)C)C(c2ccccc2)N2C(=O)CCSC2=N1` (stereo not given) yielded a displacement of 61.6%. In the case of `O=[N+]([O-])c1cc(-n2cnnn2)ccc1Sc1nnnn1-c1ccccc1`, the displacement is reported as 1.2%. For `CCOc1ccc(NC(=S)NC(NC(=O)c2ccccc2)C(Cl)(Cl)Cl)cc1` (stereo not given), the displacement was -7.8%. For `Cc1cc(C)cc(OCCCNCCO)c1`, the displacement was 0.6%. In the case of `Cc1ccc(C(O)(c2ccccc2)c2nc3ccccc3n2C(C)C)cc1` (stereo not given), the displacement is reported as -9.3%. `Cc1ccc(OCCNc2cc(Cl)ccc2[N+](=O)[O-])cc1C` gave a displacement of 0.6%. Work on `CC12OC3(CCCCC3)C(C)(OC13CCCCC3)O2` yielded a displacement of 3.7%. Work on `CCOC(=O)C1=C(c2ccccc2)OC(N(C)C)C(c2ccccc2)=C1` (stereo not given) yielded a displacement of 1.8%. Compound `O=C(N/N=C/c1ccc([N+](=O)[O-])cc1)c1cc(-c2ccc3ccccc3c2)n[nH]1` has a displacement of -5.3%. `COc1cc(C=C2C(=O)N(C)C(=O)N(C)C2=O)ccc1OCc1ccc(C(=O)O)cc1` gave a displacement of -8.7%. `COc1ccccc1CNC1CCCCC1OC` (stereo not given) was tested, and the displacement was -1.2%. `Cc1nc(-c2ccc(NC(=O)c3ccccc3)cc2)cs1` gave a displacement of 1%. `O=C(CSc1nc2ccccc2o1)c1cccc([N+](=O)[O-])c1` showed a displacement of 15.4%. Work on `COc1ccc(C2CC(=O)C3=C(C2)Nc2ccccc2NC3c2cccc(OC)c2OC)cc1OC` (stereo not given) yielded a displacement of -3.7%. With `O=C(O)CC1S/C(=N/N=C2/C(=O)Nc3ccccc32)N(c2ccc(O)cc2)C1=O` (stereo not given) the displacement was 13.7%. For `CCCCOC(=O)c1cccc(NC(=O)c2cncc(Br)c2)c1`, the displacement was 11.3%. Work on `O=C(COc1ccccc1)Nc1ccc(-c2nc3cc(Cl)ccc3o2)cc1` yielded a displacement of 16.2%. With `CN(C)CCNC(=O)c1cc(Cl)ccc1Cl` the displacement was -10.4%. `Cc1cc(OCc2ccc([N+](=O)[O-])cc2)c2c(-c3ccccc3)cc(=O)oc2c1` gave a displacement of -4.9%. `CCOC(=O)C(CC)Oc1ccc2c(C(F)(F)F)cc(=O)oc2c1` (stereo not given) was tested, and the displacement was -2%.

Reference: PubChem BioAssay AID1240 (Sanford-Burnham Center for Chemical Genomics, 2008)
